Test results reported in the supplement of paper PMC8728848.
This is one part of the list.

Tests used:
Experiment in all cases: glycan array binding signal (z-score within array); higher = stronger binding
Details in all cases: glycan notation: IUPAC condensed, linker removed
[1] = molecular target: Fuc(a1-2)[Gal(a1-3)]Gal(b1-4)GlcNAc(b1-2)Man(a1-3)[Fuc(a1-2)[Gal(a1-3)]Gal(b1-4)GlcNAc(b1-2)Man(a1-6)]Man(b1-4)GlcNAc(b1-4)[Fuc(a1-6)]GlcNAc
Outline: (§1)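 Columns mapping to the same glycan were averaged after glycan names were converted to IUPAC-condensed notation. The data come from 3228 arrays in the Consortium for Functional Glycomics database, limited to those with an available protein sequence. Binding is reported as a within-array Z-score averaged across arrays of one protein sequence and across linkers.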

[2] = molecular target: Fuc(a1-2)[Gal(a1-3)]Gal(b1-4)GlcNAc(b1-3)GalNAc
Outline: as §1

[3] = molecular target: Fuc(a1-2)[Gal(a1-3)]Gal(b1-4)GlcNAc(b1-3)[Fuc(a1-2)[Gal(a1-3)]Gal(b1-4)GlcNAc(b1-6)]GalNAc
Outline: as §1

[4] = molecular target: Fuc(a1-2)[Gal(a1-3)]Gal(b1-4)GlcNAc(b1-6)GalNAc
Outline: as §1

[5] = molecular target: Fuc(a1-2)[Gal(a1-3)]Gal(b1-4)[Fuc(a1-3)]Glc
Outline: as §1

[6] = molecular target: Fuc(a1-2)[Gal(a1-3)]Gal(b1-4)[Fuc(a1-3)]GlcNAc
Outline: as §1

[7] = molecular target: Fuc(a1-2)[Gal(a1-3)]Gal(b1-4)[Fuc(a1-3)]GlcNAc(b1-3)GalNAc
Outline: as §1

[8] = molecular target: Fuc(a1-2)[Gal(a1-4)]Gal(b1-4)GlcNAc
Outline: as §1

[9] = molecular target: Fuc(a1-2)[GalNAc(a1-3)]Gal
Outline: as §1

[10] = molecular target: Fuc(a1-2)[GalNAc(a1-3)]Gal(b1-3)GalNAc(a1-3)[Fuc(a1-2)]Gal(b1-4)GlcNAc
Outline: as §1

[11] = molecular target: Fuc(a1-2)[GalNAc(a1-3)]Gal(b1-3)GalNAc(b1-3)Gal(a1-4)Gal(b1-4)Glc
Outline: as §1

[12] = molecular target: Fuc(a1-2)[GalNAc(a1-3)]Gal(b1-3)GlcNAc
Outline: as §1

[13] = molecular target: Fuc(a1-2)[GalNAc(a1-3)]Gal(b1-3)GlcNAc(b1-2)Man(a1-3)[Fuc(a1-2)[GalNAc(a1-3)]Gal(b1-3)GlcNAc(b1-2)Man(a1-6)]Man(b1-4)GlcNAc(b1-4)GlcNAc
Outline: as §1

[14] = molecular target: Fuc(a1-2)[GalNAc(a1-3)]Gal(b1-3)GlcNAc(b1-2)Man(a1-3)[Fuc(a1-2)[GalNAc(a1-3)]Gal(b1-3)GlcNAc(b1-2)Man(a1-6)]Man(b1-4)GlcNAc(b1-4)[Fuc(a1-6)]GlcNAc
Outline: as §1

[15] = molecular target: Fuc(a1-2)[GalNAc(a1-3)]Gal(b1-3)GlcNAc(b1-3)GalNAc
Outline: as §1

[16] = molecular target: Fuc(a1-2)[GalNAc(a1-3)]Gal(b1-3)GlcNAc(b1-6)GalNAc
Outline: as §1

[17] = molecular target: Fuc(a1-2)[GalNAc(a1-3)]Gal(b1-4)Glc
Outline: as §1

[18] = molecular target: Fuc(a1-2)[GalNAc(a1-3)]Gal(b1-4)GlcNAc
Outline: as §1

[19] = molecular target: Fuc(a1-2)[GalNAc(a1-3)]Gal(b1-4)GlcNAc(b1-2)Man
Outline: as §1

[20] = molecular target: Fuc(a1-2)[GalNAc(a1-3)]Gal(b1-4)GlcNAc(b1-2)Man(a1-3)[Fuc(a1-2)[GalNAc(a1-3)]Gal(b1-4)GlcNAc(b1-2)Man(a1-6)]Man(b1-4)GlcNAc(b1-4)GlcNAc
Outline: as §1

[21] = molecular target: Fuc(a1-2)[GalNAc(a1-3)]Gal(b1-4)GlcNAc(b1-2)Man(a1-3)[Fuc(a1-2)[GalNAc(a1-3)]Gal(b1-4)GlcNAc(b1-2)Man(a1-6)]Man(b1-4)GlcNAc(b1-4)[Fuc(a1-6)]GlcNAc
Outline: as §1

[22] = molecular target: Fuc(a1-2)[GalNAc(a1-3)]Gal(b1-4)GlcNAc(b1-3)Gal(b1-4)GlcNAc
Outline: as §1

[23] = molecular target: Fuc(a1-2)[GalNAc(a1-3)]Gal(b1-4)GlcNAc(b1-3)Gal(b1-4)GlcNAc(b1-3)Gal(b1-4)GlcNAc
Outline: as §1

[24] = molecular target: Fuc(a1-2)[GalNAc(a1-3)]Gal(b1-4)GlcNAc(b1-3)GalNAc
Outline: as §1

[25] = molecular target: Fuc(a1-2)[GalNAc(a1-3)]Gal(b1-4)GlcNAc(b1-3)[Fuc(a1-2)[GalNAc(a1-3)]Gal(b1-4)GlcNAc(b1-6)]GalNAc
Outline: as §1

[26] = molecular target: Fuc(a1-2)[GalNAc(a1-3)]Gal(b1-4)GlcNAc(b1-6)GalNAc
Outline: as §1

[27] = molecular target: Fuc(a1-2)[GalNAc(a1-3)]Gal(b1-4)[Fuc(a1-3)]GlcNAc
Outline: as §1

[28] = molecular target: Fuc(a1-2)[GalNAc(a1-3)]Gal(b1-4)[Fuc(a1-3)]GlcNAc(b1-3)GalNAc
Outline: as §1

[29] = molecular target: Fuc(a1-2)[GalNAc(a1-4)]Gal(b1-4)GlcNAc
Outline: as §1

[30] = molecular target: Fuc(a1-2)[GalNAc(b1-3)]Gal
Outline: as §1

Fuc(a1-3)GlcNAc = molecular target: Fuc(a1-3)GlcNAc
Outline: as §1

[31] = molecular target: Fuc(a1-3)[Gal(b1-4)]Glc6S
Outline: as §1

[32] = molecular target: Fuc(a1-3)[Gal(b1-4)]GlcNAc
Outline: as §1

[33] = molecular target: Fuc(a1-3)[Gal(b1-4)]GlcNAc(b1-2)Man
Outline: as §1

[34] = molecular target: Fuc(a1-3)[Gal(b1-4)]GlcNAc(b1-2)Man(a1-3)[Fuc(a1-3)[Gal(b1-4)]GlcNAc(b1-2)Man(a1-6)]Man(b1-4)GlcNAc(b1-4)GlcNAc
Outline: as §1

[35] = molecular target: Fuc(a1-3)[Gal(b1-4)]GlcNAc(b1-2)Man(a1-3)[Fuc(a1-3)[Gal(b1-4)]GlcNAc(b1-2)Man(a1-6)]Man(b1-4)GlcNAc(b1-4)[Fuc(a1-6)]GlcNAc
Outline: as §1

[36] = molecular target: Fuc(a1-3)[Gal(b1-4)]GlcNAc(b1-3)Gal(b1-3)[Fuc(a1-4)]GlcNAc
Outline: as §1

[37] = molecular target: Fuc(a1-3)[Gal(b1-4)]GlcNAc(b1-3)Gal(b1-4)[Fuc(a1-3)]GlcNAc
Outline: as §1

[38] = molecular target: Fuc(a1-3)[Gal(b1-4)]GlcNAc(b1-3)Gal(b1-4)[Fuc(a1-3)]GlcNAc(b1-3)Gal(b1-4)[Fuc(a1-3)]GlcNAc
Outline: as §1

[39] = molecular target: Fuc(a1-3)[Gal(b1-4)]GlcNAc(b1-3)GalNAc
Outline: as §1

[40] = molecular target: Fuc(a1-3)[Gal(b1-4)]GlcNAc(b1-6)GalNAc
Outline: as §1

[41] = molecular target: Fuc(a1-3)[Gal(b1-4)]GlcNAc(b1-6)[Gal(b1-3)GlcNAc(b1-3)]Gal(b1-4)Glc
Outline: as §1

[42] = molecular target: Fuc(a1-3)[Gal(b1-4)]GlcNAc6S
Outline: as §1

[43] = molecular target: Fuc(a1-3)[Gal3S(b1-4)]Glc
Outline: as §1

[44] = molecular target: Fuc(a1-3)[Gal3S(b1-4)]GlcNAc
Outline: as §1

B1: Si Bti9 1b-V5-his (Solanum lycopersicum) (protein)
chain: MQCNRGCDLALASFYVWRGSNLTLISEMFSTSIADIVSYNNRDNIPNQDSVIAGTRINIPFRCDCLNDGEVLGHAFPYRVKSGDTYDLVARNYSDLTTAQWMMKFNSYPENNIPNTVNLSVVVNCSCGNSDVSKDFGLFVTYPVRAEDNLTSVASAANVSEDIIRRYNPAAVSILDIGQGIIYIPGRDRNGNFPPLPTSTDGLSGGAKKGGRADPAFLYKVVINSKLEGKPIPNPLLGLDSTRTGHHHHHH
- glycan array binding signal (z-score) [1]: -0.131
- glycan array binding signal (z-score) [2]: -0.156
- glycan array binding signal (z-score) [3]: 0.089
- glycan array binding signal (z-score) [4]: -0.291
- glycan array binding signal (z-score) [5]: -0.298
- glycan array binding signal (z-score) [6]: -0.394
- glycan array binding signal (z-score) [7]: -0.233
- glycan array binding signal (z-score) [8]: -0.37
- glycan array binding signal (z-score) [9]: -0.167
- glycan array binding signal (z-score) [10]: -0.268
- glycan array binding signal (z-score) [11]: -0.335
- glycan array binding signal (z-score) [12]: -0.322
- glycan array binding signal (z-score) [13]: 0.024
- glycan array binding signal (z-score) [14]: -0.076
- glycan array binding signal (z-score) [15]: 0.117
- glycan array binding signal (z-score) [16]: -0.213
- glycan array binding signal (z-score) [17]: -0.239
- glycan array binding signal (z-score) [18]: -0.218
- glycan array binding signal (z-score) [19]: 0.027
- glycan array binding signal (z-score) [20]: -0.252
- glycan array binding signal (z-score) [21]: 0.032
- glycan array binding signal (z-score) [22]: -0.255
- glycan array binding signal (z-score) [23]: 0.217
- glycan array binding signal (z-score) [24]: -0.145
- glycan array binding signal (z-score) [25]: -0.271
- glycan array binding signal (z-score) [26]: -0.333
- glycan array binding signal (z-score) [27]: -0.245
- glycan array binding signal (z-score) [28]: 0.126
- glycan array binding signal (z-score) [29]: -0.185
- glycan array binding signal (z-score) [30]: -0.345
- glycan array binding signal (z-score) (Fuc(a1-3)GlcNAc): -0.37
- glycan array binding signal (z-score) [31]: -0.288
- glycan array binding signal (z-score) [32]: -0.217
- glycan array binding signal (z-score) [33]: -0.338
- glycan array binding signal (z-score) [34]: 0.018
- glycan array binding signal (z-score) [35]: -0.23
- glycan array binding signal (z-score) [36]: -0.136
- glycan array binding signal (z-score) [37]: 0.039
- glycan array binding signal (z-score) [38]: -0.313
- glycan array binding signal (z-score) [39]: -0.187
- glycan array binding signal (z-score) [40]: -0.03
- glycan array binding signal (z-score) [41]: -0.389
- glycan array binding signal (z-score) [42]: -0.273
- glycan array binding signal (z-score) [43]: -0.261
- glycan array binding signal (z-score) [44]: -0.308
